Test results as given in patent US20250144249A1, “METHODS USING SURFACE-EXPRESSIBLE ACTIVATABLE EPITOPES TO LOCALIZE AND/OR TREAT DISEASED CELLS” (EARLI Inc., priority 2022, published 2025).

Tested on: H1299 cells
Test: FACS detection of engineered DLL3 on the surface of transfected H1299 cells (Example 4)
Assay type: cell-based, human
Conditions: H1299 cells transfected with construct, fluorescently labeled anti-DLL3 antibody, compared to wild-type DLL3 (NP116, NP127)
From the text: Each of the six engineered DLL3 constructs ([…]) and two different wild-type DLL3 constructs (NP116 and NP127) was separately introduced to human non-small cell lung carcinoma, H1299 cells (also known as NCI-H1299 or CRL-5803) by transfection to analyze the expression of engineered DLL3. H1299 cells were then stained with fluorescently labeled anti-DLL3 antibodies and analyzed by fluorescence-activated cell sorting (FACS) to detect DLL3 expression. Panels A2-G2 in FIG. 8B, and NP116, NP127, NP244-NP249, and NP268 in FIG. 8C show the amount of DLL3 expressed on the cell surface corresponding to panels A1-G1 in FIG. 8A. […] Specifically, NP249 and NP247 increased percent positive to ˜80% and ˜94%, respectively (FIG. 8C).

B1: NP248: engineered DLL3 construct, GM-CSF SP, hIgG4 Fc domain, CD4 transmembrane helix; SEQ ID NO: 38 (protein)
chain: MLLLVTSLLLCELPHPAFLLIPAGVFELQIHSFGPGPGPGAPRSPCSARLPCRLFFRVCLKPGLSEEAAESPCALGAALSARGPVYTEQPGAPAPDLPLPDGLLQVPFRDAWPGTFSFIIETWREELGDQIGGPAWSLLARVAGRRRLAAGGPWARDIQRAGAWELRFSYRARCEPPAVGTACTRLCRPRSAPSRCGPGLRPCAPLEDECEAPLVCRAGCSPEHGFCEQPGECRCLEGWTGPLCTVPVST[human IgG4 Fc not shown]MALIVLGGVAGLLLFIGLGIFFHMGGGSGGGSAYPYDVPDYAAYPYDVPDYA
expression level of DLL3 on the cell surface: increased the expression level of DLL3
